The campaign covered roughly 150,000 compounds. About 540 (0.36%) showed an effect of 50% or more. The list shows a part of the results.

The test system of the assay is Plasmodium falciparum. Put plainly: Primary screen in NF54 nanoGlo assay, in single point, at 2uM, 72h; a lower Z score goes with more inhibition. Format: functional, Erythrocyte. To be noted: timepoint 72 hour.
Regarding `O=C(CN1CCC(c2ncco2)CC1)Nc1ccc(F)c(Cl)c1`, the % Inhibition (in general, the relative decrease from the control value, in per cent) is given as -6% and the Z score is 1.1.
The corresponding values for `Cc1ccccc1OCC(=O)N1CCC[C@H]1c1nnc2ccccn12` are -2% and 0.41.
`C=CCc1ccccc1OCCN(C)Cc1nccn1C`: the “% Inhibition” value is -11% and the Z score is 1.03.
The corresponding values for `Cc1n[nH]c(C)c1S(=O)(=O)Nc1cc(F)ccc1OCC1CC1` are 6% and -0.89.
The corresponding values for `O=C(NC1CC1)C1Cc2cc(C(F)(F)F)ccc2N2CCN(c3ccccc3F)CC12` (stereo not drawn) are -19% and 2.05.
Turning to `Cn1cc(NC(=O)N(CCO)CC2CC2)ccc1=O`, the “% Inhibition” value came to 1% and the Z score is recorded as -0.12.
On the same counts, the results for `O=c1c2ncn(COCCO)c2nc2n1CN(C1CCCC1)CN2` are 7% and -0.91.
On the same counts, the results for `CCN(C(=O)c1scc(C)c1Cl)[C@@H](C)CS(C)(=O)=O` are 4% and -0.6.
The corresponding values for `CC(C)c1ncc(CN(C)Cc2nncn2C)cn1` are -2% and 0.39.
Consider `CC(C)(C)n1nccc1NC(=O)NC1CC2CCC(C1)S2(=O)=O` (stereo not drawn), for which the “% Inhibition” value turned out to be 30% and the Z score is -3.29.
On the same counts, the results for `CCCNS(=O)(=O)c1cc(-c2nc(C)c(C(=O)N3CCCCC3)s2)n(C)c1` are -3% and 0.32.
As for `C[C@H](NC(=O)N1CCN(c2nccs2)CC1)c1cccnc1`, the “% Inhibition” value is -9% and the Z score was found to be 1.61.
Turning to `Cc1cc(=O)[nH]c(NCc2ccc3c(c2)OCO3)n1`, the “% Inhibition” value is 20% and the Z score is listed as -3.54.
The corresponding values for `COCCc1noc(-c2[nH]c3ccc(C)cc3c2C)n1` are 4% and -0.79.
The corresponding values for `COc1ccc(CCCNC(=O)c2ccc(CN3CCOCC3)cc2)cc1OC` are -12% and 1.64.
Turning to `CC[C@@]1(C)CC(c2csc(N)n2)CCO1` (stereo partly drawn), the “% Inhibition” value was -4% and the Z score is listed as 0.46.
Take `CCO[C@@H](C)c1nc(C)c(C(=O)N(C)c2ccc(N(C)C)cc2)s1`: the “% Inhibition” value is -5% and the Z score was 0.71.
On the same counts, the results for `CC(=O)NC1CCN(c2nc(C3CCCC3)nc3c2CCOCC3)CC1` are -4% and 0.51.
On the same counts, the results for `Cc1ccccc1-c1cn2c(n1)COCC2` are -4% and 0.68.
With `Cc1nc[nH]c1-c1nccn1Cc1ccc2c(c1)CCCO2`, the “% Inhibition” value is recorded as -6% and the Z score amounted to 1.22.
The corresponding values for `N#Cc1c(NC(=O)CCN2CCC(O)CC2)sc2c1CCCCC2` are -6% and 0.95.
Turning to `COc1ccc(Cl)cc1NC(=O)c1sc2ncnc(N(C)c3ccccc3)c2c1C`, the “% Inhibition” value was 1% and the Z score is reported as -0.22.
For the compound `NC(=O)CC1CCN(C(=O)N(c2ccccc2)c2ccccc2)CC1`, the “% Inhibition” value is -7% and the Z score is on record as 0.81.
`CC(=O)CC(=O)Nc1ccc(C)cc1Br`: the “% Inhibition” value was -5% and the Z score came to 0.74.
The corresponding values for `CCC(CO)(CO)NC(=O)c1cc(F)c(C)cc1F` are -3% and 0.38.
On the same counts, the results for `c1ccc2oc(NCc3noc(C4CC4)n3)nc2c1` are -8% and 0.95.
The corresponding values for `CN1c2ccccc2C(=O)N(c2ccccc2Cl)[C@H]1c1cscn1` are 9% and -1.16.
With `OC1CCCN(CC(O)COc2ccc3ccccc3c2)C1` (stereo not drawn), the “% Inhibition” value was determined as 0% and the Z score was 0.04.
On the same counts, the results for `CN1CC[C@@H](C(=O)NC(C)(C)COc2ncccc2C(F)(F)F)S1(=O)=O` are 5% and -0.96.
On the same counts, the results for `NCc1cccc(NC(=O)N2C[C@H]3CCC[C@@H](C3)C2)c1` are -13% and 2.03.
On the same counts, the results for `CCNC(=O)c1cnn(-c2cc(-c3nc(CC)no3)ccn2)c1C` are -18% and 2.83.
For `CCN(CC)CCNC(=O)c1cccc(C)c1O`, the “% Inhibition” value is recorded as 4% and the Z score was -0.48.
Consider `Cc1cnc(NC(=O)C2(S(C)(=O)=O)CCOCC2)s1`, for which the “% Inhibition” value was -7% and the Z score is 1.24.
On the same counts, the results for `Cc1cc(C(=O)N2CC[C@@H]3OCc4cccc(c4)Oc4cncc(c4)C(=O)NCCCC(=O)N[C@H]3C2)cc(C)n1` are -14% and 2.59.
On the same counts, the results for `CC(C)Nc1cc(-c2ccc(C(=O)N3CC[C@@](O)(CO)C3)cc2)nc(N)n1` are -7% and 1.11.
In the case of `O=C(NCCCc1ccccc1)[C@@H]1CCCN1C(=O)Nc1ccc2c(c1)OCCO2`, the “% Inhibition” value is reported as 0% and the Z score was -0.03.
The corresponding values for `Cc1ccnc(C(C)(C)C(=O)NC[C@H]2CC(=O)N(C)[C@@H]2c2cnn(C)c2C)c1` are -2% and 0.33.
For the compound `Cc1cccc(OCc2cncc(-c3cccc(C)c3C)c2)c1C`, the “% Inhibition” value is reported as -10% and the Z score worked out at 1.59.
`COCCCNC(=O)[C@@H]1CCCCC(=O)N1Cc1ccccc1`: the “% Inhibition” value is -2% and the Z score is recorded as 0.2.
Regarding `O=C(Cn1ncc(=O)c2ccccc21)Nc1ccncc1`, the “% Inhibition” value is -8% and the Z score was determined as 1.42.
On the same counts, the results for `COCc1ccc(C(=O)N2CCc3[nH]cnc3[C@H]2c2ccncc2)s1` are -6% and 0.55.
For the compound `Cc1cccc(-c2n[nH]cc2-c2nc([C@H]3CCOC3)no2)c1`, the “% Inhibition” value was -5% and the Z score is recorded as 0.95.
Regarding `O=C(Cc1ccsc1)NCc1noc([C@@H]2CCCO2)n1`, the “% Inhibition” value was -13% and the Z score stood at 2.66.
Consider `O=S(=O)(NC[C@H]1CCCNC1)c1c(Cl)cccc1C(F)(F)F`, for which the “% Inhibition” value is reported as -5% and the Z score came to 0.71.

Source of the values: ChEMBL document CHEMBL4888484, “Replenishing the malaria drug discovery pipeline: Screening and hit evaluation of the MMV Hit Generation Library 1 (HGL1) against asexual blood stage Plasmodium falciparum ,using a nano luciferase reporter read-out” (2022).
